Hit rate of the full screen: of about 370,000 compounds, about 150 (0.041%) were called active. This list was built around the results that the source calls inconclusive (neither active nor inactive); the mix of calls is not that of the screen. Calls come from the whole dose curve; as a rule, active = well fitted inhibition curve with a large enough effect; inconclusive = small, poorly fitted or top-dose-only effect; inactive = flat fitted curve, though single readings scatter. Potencies of inconclusive entries are left out as doubtful fits.
target: Beta-lactamase (Escherichia coli (strain K12)) (UniProt P00811); experiment: qHTS Inhibitors of AmpC Beta-Lactamase (assay with detergent); conditions: AmpC hydrolysis of nitrocefin, absorbance 480 nm, 0.01% Triton; activity change, negative = inhibition: at 114 µM (top of the series); note: nearly all actives have a fitted effect of over 25% in size;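 for activity change, negative = inhibition: 0% = no-compound wells and -100% = no-enzyme wells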
Sequence of UniProt P00811 (P00811 whole entry, looked up): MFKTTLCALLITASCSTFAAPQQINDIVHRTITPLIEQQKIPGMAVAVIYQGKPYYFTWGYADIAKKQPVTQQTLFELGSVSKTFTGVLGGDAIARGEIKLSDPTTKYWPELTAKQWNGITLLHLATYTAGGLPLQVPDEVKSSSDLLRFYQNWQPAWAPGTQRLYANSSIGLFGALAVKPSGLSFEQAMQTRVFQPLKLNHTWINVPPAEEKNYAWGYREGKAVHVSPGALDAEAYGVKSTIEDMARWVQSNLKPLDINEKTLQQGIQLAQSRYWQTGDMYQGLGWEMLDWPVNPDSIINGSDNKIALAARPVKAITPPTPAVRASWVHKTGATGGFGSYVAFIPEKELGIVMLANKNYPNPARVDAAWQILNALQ
How it was run: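 20 mM phosphate pH 7.0 + 0.01% (detergent screen) or 0.0001% Triton X-100; 5.3 nM AmpC reagent; cpd preinc 15 min RT; nitrocefin (800 uM stock) to start; A480 q20 s × 4 min; Activity was normalised to no-enzyme and no-compound control wells.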
Potency is the fitted concentration of half-maximal effect; tags give direction and shape of the fitted curve.

SMILES | Potency | activity change, negative = inhibition
COC(=O)c1ccc(CSc2nc3sc(C(=O)O)c(C)c3c(=O)[nH]2)cc1 | inconclusive [inhibitor, full curve, poor fit] | –
CN1/C(=C\C(=O)COC(=O)c2nccnc2N)C(C)(C)c2ccccc21 | – | inactive: -1.99%
Cn1c(N)c(Sc2ccccc2[N+](=O)[O-])c(=O)n(C)c1=O | inconclusive [inhibitor, full curve, poor fit] | –
CC1CCCc2sc3nc(N4CCN(CCO)CC4)n4ncnc4c3c21 (stereo not given) | inconclusive [inhibitor, full curve, poor fit] | –
C=CCc1cccc(Cl)c1OCCCNC1CCCC1 | inconclusive [inhibitor, full curve, poor fit] | –
Cc1cc(N=Nc2ccc3ccccc3c2)ccc1O | inconclusive [inhibitor, full curve, poor fit] | –
COc1ccccc1-c1n[nH]c(=S)o1 | inconclusive [inhibitor, full curve] | –
COc1ccc(OCC(=O)N/N=C/C=C/c2ccccc2)cc1 | inconclusive [inhibitor, full curve, poor fit] | –
CCC1(C)Cc2c(sc3c2c2ncnn2c2nnc(SCC(=O)NCc4ccco4)n32)CO1 (stereo not given) | – | inactive: -19.5%
COc1cccc(NC(=S)N(Cc2ccccn2)Cc2ccccc2Cl)c1 | inconclusive [inhibitor, full curve, poor fit] | –
COC(=O)CN(c1cc(Cl)ccc1OC)S(=O)(=O)c1ccc(OC)c(OC)c1 | inconclusive [inhibitor, partial curve, poor fit] | –
COc1ccc(-c2onc(C)c2C)cc1S(=O)(=O)N1CCN(c2cc(C)ccc2C)CC1 | – | inactive: -4.86%
COc1ccc(S(=O)(=O)NC(C(C)C)C(C)C)cc1OC | inconclusive [inhibitor, partial curve, poor fit] | –
Cc1ccc(C(=O)NC(C)c2ccccc2)cc1S(=O)(=O)N1CCOCC1 (stereo not given) | inconclusive [inhibitor, partial curve] | –
O=S(=O)(/N=C(/Nc1ccc(F)cc1F)c1ccccc1)c1ccccc1 | inconclusive [inhibitor, full curve, poor fit] | –
CC(C)c1ccc(OC(=O)NCCO)cc1 | inconclusive [inhibitor, full curve, poor fit] | –
COC(=O)CC(=O)CSc1nc2cc(C(=O)NCC(C)C)ccc2c(=O)n1CCc1ccccc1 | – | inactive: 9.86%
COCCNCC#CCOc1ccc(OC)cc1 | inconclusive [inhibitor, partial curve, poor fit] | –
CSc1cccc(NS(=O)(=O)c2ccc3c(c2)oc(=O)n3C)c1 | – | inactive: -9.42%
COc1cccc(NC(=O)CSc2c3c(nc4ccccc24)CCCC3)c1 | inconclusive [inhibitor, full curve, poor fit] | –
Cc1ccccc1NC(=S)NC(C)C(c1ccccc1)N1CCN(C)CC1 (stereo not given) | inconclusive [inhibitor, full curve] | –
Nc1nc(NC(=O)c2cccs2)nn1-c1ccccc1 | inconclusive [inhibitor, full curve, poor fit] | –

SMILES | Potency | activity change, negative = inhibition
CCS(=O)(=O)n1nc(-c2ccc(Cl)cc2)nc1N | – | inactive: 0.875%
Cc1ccc(-c2nnc3c4ccccc4c(C)nn23)cc1S(=O)(=O)N1CCN(CCO)CC1 | inconclusive [inhibitor, full curve, poor fit] | –
Fc1ccc(C2CC(c3ccccc3)Nc3ncnn32)cc1 (stereo not given) | inconclusive [inhibitor, full curve, poor fit] | –
COC(=O)C1=C(C)N(c2ccc(OC)cc2)C(=O)/C1=C\c1cccs1 | inconclusive [inhibitor, full curve, poor fit] | –
CC(=O)Nc1ccc(-c2csc(Nc3ncccn3)n2)cc1 | – | inactive: 1.35%
O=C1CC(NCCN2CCOCC2)C(=O)N1Cc1ccc(N2CCCC2=O)cc1 (stereo not given) | – | inactive: -10.1%
CCOC(=O)c1c(N2CCN(c3ccccc3)CC2)cc(C)nc1C | inconclusive [inhibitor, full curve, poor fit] | –
CCCOc1ccc(C(=O)NC(=S)Nc2nc3ccc(C)cc3s2)cc1 | inconclusive [inhibitor, full curve, poor fit] | –
COc1ccccc1Oc1cn[nH]c1-c1ccc(OCC(=O)NN)cc1O | – | inactive: -1.83%
CC1CCc2c(c3ccccc3n2C(=O)CCl)C1 (stereo not given) | inconclusive [inhibitor, partial curve] | –
Cc1ccccc1OCCC(=O)OCC(=O)NC1CCS(=O)(=O)C1 (stereo not given) | – | inactive: -10%
Cc1cc(C)n2nc(CNS(=O)(=O)c3ccccc3)nc2n1 | – | inactive: 1.91%
CCOc1ccccc1OCc1nn2c(-c3ccc(C)cc3)nnc2s1 | inconclusive [inhibitor, full curve, poor fit] | –
Cc1cc(NC(=O)CSc2nc(=O)n3cccc(C)c3n2)no1 | inconclusive [inhibitor, full curve, poor fit] | –
O=C(Nc1ccc(N2CCCCC2)cc1)c1ccc(F)cc1 | inconclusive [inhibitor, partial curve] | –
COc1ccccc1N1CCN(Cc2nc(N)nc(Nc3ccc(C)c(Cl)c3)n2)CC1 | inconclusive [inhibitor, full curve] | –
CCOC(=O)N1CCN(Cc2cn3ccccc3n2)CC1 | inconclusive [inhibitor, partial curve, poor fit] | –
COc1ccc(OC)c(NC(=O)N2CC3CCCN3c3ccccc32)c1 (stereo not given) | inconclusive [inhibitor, full curve, poor fit] | –
CCOC(=O)C1(CCOC)CCN(Cc2cnc(-c3cccc(C)c3)nc2)CC1 | inconclusive [inhibitor, single point] | –
CCOc1ccc2nc(/N=C/c3c(C)[nH]n(-c4ccc(C)cc4)c3=O)sc2c1 | inconclusive [inhibitor, partial curve, poor fit] | –
O=C(CC1NCCc2ccccc21)Nc1ccc(Oc2ccccc2)cc1 (stereo not given) | inconclusive [inhibitor, full curve] | –
CCOc1ccc(OCCC(=O)NNC(=O)c2ccccc2Cl)cc1 | inconclusive [inhibitor, full curve, poor fit] | –

SMILES | Potency | activity change, negative = inhibition
COc1ccc(-c2cc(C(=O)NCCc3ccc(OC)c(OC)c3)c3c(-c4ccc(F)cc4)[nH]nc3n2)cc1 | – | inactive: 7.44%
Cc1cccc(NCc2nnc(-c3ccccc3)o2)c1C | inconclusive [inhibitor, partial curve] | –
COc1ccc(C(C(=O)NC2CCCC2)N(C(=O)c2csnn2)C2CC2)cc1 (stereo not given) | – | inactive: -9.31%
CO/N=C(\Cn1ncc(N2CCCC2)c(Cl)c1=O)c1ccc(Cl)cc1 | inconclusive [inhibitor, full curve] | –
COC(=O)c1ccc(CNC(=O)COC(=O)c2cc(Cl)nc(Cl)c2)cc1 | inconclusive [inhibitor, partial curve] | –
COCCNC(=O)Cn1c(=O)n(CCC(=O)NCCc2ccccc2)c(=O)c2ccccc21 | inconclusive [inhibitor, partial curve] | –
Cn1cc(SCC(=O)NCc2ccc3c(c2)OCO3)c2ccccc21 | inconclusive [inhibitor, full curve] | –
COc1ccc(C2SCC(=O)N2c2nnc(C34CC5CC(CC(C5)C3)C4)s2)cc1 (stereo not given) | inconclusive [inhibitor, single point] | –
O=C(NCc1ccccn1)C1CCN(S(=O)(=O)N2CCC3(CC2)OCCO3)CC1 | inconclusive [inhibitor, full curve] | –
Cc1ccc(NC2=NC(c3ccc(C)cc3)n3c(nc(C)cc3=O)N2)cc1 (stereo not given) | inconclusive [inhibitor, partial curve, poor fit] | –
Cc1cc(NC(=O)CN2C(=O)NC3(CCCCC3)C2=O)ccc1N1CCCC1 | inconclusive [inhibitor, full curve, poor fit] | –
O=C(NCCN1CCCCC1)Nc1ccc([N+](=O)[O-])cc1 | inconclusive [inhibitor, partial curve, poor fit] | –
c1ccc(-c2cc3c(NCC4COc5ccccc5O4)ncnc3s2)cc1 (stereo not given) | inconclusive [inhibitor, partial curve, poor fit] | –
COc1cc(CN2CCC(Cc3ccccc3)CC2)cc(OC)c1OC | inconclusive [inhibitor, partial curve, poor fit] | –
OCCn1c(SCCOc2ccccc2)nc2ccccc21 | – | inactive: 3.3%
N#Cc1ccccc1Cn1cc(/C=N/Nc2ccc([N+](=O)[O-])cn2)c2ccccc21 | inconclusive [inhibitor, single point] | –
Cc1ccc(CCNC(=O)C2CCCN(C(=O)N(C)C)C2)cc1 (stereo not given) | inconclusive [inhibitor, partial curve] | –
COc1ccc(C(C)=O)cc1COC(=O)c1ccc2c(c1)OCO2 | – | inactive: -11%
COc1ccccc1CNC(=O)[C@H](CCSC)NC(=O)[C@@H]1Cc2ccccc2CN1 | inconclusive [inhibitor, full curve] | –
CCOC(=O)C1=C(C)NC(=O)NC1c1ccc(OCC(=O)OC)c(OC)c1 (stereo not given) | inconclusive [inhibitor, full curve, poor fit] | –
COC(=O)c1ccc(C2CC(=O)NC3=C2C(=O)CCC3)cc1 (stereo not given) | inconclusive [inhibitor, single point] | –

Reference: PubChem BioAssay AID485294 (National Center for Advancing Translational Sciences (NCATS), 2010)
